Many values rest on one well or one pass, so single values are uncertain.
Key:
[1] = tested on: CHO-K1; test: micronucleus frequency (% of nucleated events); higher = more micronuclei (genotoxic)
[2] = tested on: CHO-K1; test: hypodiploid nuclei frequency (% of nucleated events); higher = more hypodiploid events (aneugenic)
Protocol: (§1)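 Flow-cytometric in vitro micronucleus assay (Litron MicroFlow) in CHO-K1 cells in 96-well plates, 19 concentrations (4.5-200 µM, n=1 per concentration). Without S9, cells were exposed for 24 h and sampled at 48 h. With Aroclor 1254-induced rat liver S9, cells were exposed for 3-4 h and sampled at 27-28 h. Read-outs are %MN and %hypodiploid nuclei relative to nucleated events, and relative survival as the nuclei-to-bead ratio versus the 1% DMSO vehicle control (x100).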

[3] = tested on: CHO-K1; test: relative survival (nuclei to bead ratio vs DMSO control) (% of vehicle control); higher = more surviving cells
Protocol: as §1
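Throughout, for hypodiploid nuclei frequency (% of nucleated events): hypodiploid nuclei gated on a flow cytometer with 488 nm excitation after SYTOX Green staining, cultures at 37 °C, positive controls vinblastine without S9 and cyclophosphamide with S9.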
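Throughout, for micronucleus frequency (% of nucleated events): cells lysed with nuclei stained by SYTOX Green, then micronucleus-gated events counted against nucleated events by flow cytometry with 488 nm excitation.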
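Throughout, for relative survival (nuclei to bead ratio vs DMSO control): Lysed-cell nuclei stained with SYTOX Green and counted against counting beads by flow cytometry at 488 nm excitation, with vinblastine (no S9) and cyclophosphamide (plus S9) as positive controls.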

Cc1ccc([N+](=O)[O-])cc1C [1,2-Dimethyl-4-nitrobenzene]
Conditions	hypodiploid nuclei frequency, [2] [%]	micronucleus frequency, [1] [%]	relative survival, [3]
concentration: 4.5 (µM), S9 metabolic activation: with S9, exposure time: 3-4 hours	0.34	1.4	104
concentration: 4.5 (µM), S9 metabolic activation: without S9, exposure time: 24 hours	0.72	2.52	116
concentration: 5.63 (µM), S9 metabolic activation: with S9, exposure time: 3-4 hours	0.24	0.98	121
concentration: 5.63 (µM), S9 metabolic activation: without S9, exposure time: 24 hours	0.5	2.52	103
concentration: 7.04 (µM), S9 metabolic activation: with S9, exposure time: 3-4 hours	0.22	1.08	135
concentration: 7.04 (µM), S9 metabolic activation: without S9, exposure time: 24 hours	0.64	2.52	105
concentration: 8.8 (µM), S9 metabolic activation: with S9, exposure time: 3-4 hours	0.28	1.6	111
concentration: 8.8 (µM), S9 metabolic activation: without S9, exposure time: 24 hours	0.78	2.64	107
concentration: 11 (µM), S9 metabolic activation: with S9, exposure time: 3-4 hours	0.16	0.86	107
concentration: 11 (µM), S9 metabolic activation: without S9, exposure time: 24 hours	0.7	1.92	131
concentration: 13.7 (µM), S9 metabolic activation: with S9, exposure time: 3-4 hours	0.1	1.12	150
concentration: 13.7 (µM), S9 metabolic activation: without S9, exposure time: 24 hours	0.88	2.22	103
concentration: 17.2 (µM), S9 metabolic activation: with S9, exposure time: 3-4 hours	0.32	1.5	137
concentration: 17.2 (µM), S9 metabolic activation: without S9, exposure time: 24 hours	0.82	2.12	119
concentration: 21.5 (µM), S9 metabolic activation: with S9, exposure time: 3-4 hours	0.14	1	124
concentration: 21.5 (µM), S9 metabolic activation: without S9, exposure time: 24 hours	0.58	2.02	109
concentration: 26.8 (µM), S9 metabolic activation: with S9, exposure time: 3-4 hours	0.16	1.26	99.9
concentration: 26.8 (µM), S9 metabolic activation: without S9, exposure time: 24 hours	0.66	2.18	119
concentration: 33.6 (µM), S9 metabolic activation: with S9, exposure time: 3-4 hours	0.34	2	128
concentration: 33.6 (µM), S9 metabolic activation: without S9, exposure time: 24 hours	0.86	1.68	105
concentration: 41.9 (µM), S9 metabolic activation: with S9, exposure time: 3-4 hours	0.26	1.42	106
concentration: 41.9 (µM), S9 metabolic activation: without S9, exposure time: 24 hours	0.88	2.74	101
concentration: 52.4 (µM), S9 metabolic activation: with S9, exposure time: 3-4 hours	0.24	1.56	117
concentration: 52.4 (µM), S9 metabolic activation: without S9, exposure time: 24 hours	0.94	1.94	101
concentration: 65.5 (µM), S9 metabolic activation: with S9, exposure time: 3-4 hours	0.38	1.4	114
concentration: 65.5 (µM), S9 metabolic activation: without S9, exposure time: 24 hours	0.9	3.6	101
concentration: 81.9 (µM), S9 metabolic activation: with S9, exposure time: 3-4 hours	0.44	1.72	120
concentration: 81.9 (µM), S9 metabolic activation: without S9, exposure time: 24 hours	1.06	2.66	106
concentration: 102 (µM), S9 metabolic activation: with S9, exposure time: 3-4 hours	0.26	1.28	112
concentration: 102 (µM), S9 metabolic activation: without S9, exposure time: 24 hours	1.32	2.2	85.4
concentration: 128 (µM), S9 metabolic activation: with S9, exposure time: 3-4 hours	0.26	1.58	110
concentration: 128 (µM), S9 metabolic activation: without S9, exposure time: 24 hours	1.14	2.84	105
concentration: 160 (µM), S9 metabolic activation: with S9, exposure time: 3-4 hours	0.3	1.36	106
concentration: 160 (µM), S9 metabolic activation: without S9, exposure time: 24 hours	1.94	2.42	105
concentration: 200 (µM), S9 metabolic activation: with S9, exposure time: 3-4 hours	0.36	1.9	118
concentration: 200 (µM), S9 metabolic activation: without S9, exposure time: 24 hours	1.92	3.16	83.5

c1ccc(NNc2ccccc2)cc1 [1,2-Diphenylhydrazine]
Conditions	hypodiploid nuclei frequency, [2] [%]	micronucleus frequency, [1] [%]	relative survival, [3]
concentration: 4.5 (µM), S9 metabolic activation: with S9, exposure time: 3-4 hours	0.3	1.46	91.1
concentration: 4.5 (µM), S9 metabolic activation: without S9, exposure time: 24 hours	0.68	1.38	120
concentration: 5.63 (µM), S9 metabolic activation: with S9, exposure time: 3-4 hours	0.36	1.68	87.8
concentration: 5.63 (µM), S9 metabolic activation: without S9, exposure time: 24 hours	0.74	1.64	110
concentration: 7.04 (µM), S9 metabolic activation: with S9, exposure time: 3-4 hours	0.3	2.04	86.7
concentration: 7.04 (µM), S9 metabolic activation: without S9, exposure time: 24 hours	0.94	0.9	119
concentration: 8.8 (µM), S9 metabolic activation: with S9, exposure time: 3-4 hours	0.28	2.14	90
concentration: 8.8 (µM), S9 metabolic activation: without S9, exposure time: 24 hours	0.78	1.3	147
concentration: 11 (µM), S9 metabolic activation: with S9, exposure time: 3-4 hours	0.28	1.56	115
concentration: 11 (µM), S9 metabolic activation: without S9, exposure time: 24 hours	0.64	1.16	134
concentration: 13.7 (µM), S9 metabolic activation: with S9, exposure time: 3-4 hours	0.38	2.08	103
concentration: 13.7 (µM), S9 metabolic activation: without S9, exposure time: 24 hours	0.6	1.14	122
concentration: 17.2 (µM), S9 metabolic activation: with S9, exposure time: 3-4 hours	0.4	2.14	93.8
concentration: 17.2 (µM), S9 metabolic activation: without S9, exposure time: 24 hours	0.58	1.48	119
concentration: 21.5 (µM), S9 metabolic activation: with S9, exposure time: 3-4 hours	0.22	1.3	96
concentration: 21.5 (µM), S9 metabolic activation: without S9, exposure time: 24 hours	1.18	1.46	98.8
concentration: 26.8 (µM), S9 metabolic activation: with S9, exposure time: 3-4 hours	0.24	2.5	84.9
concentration: 26.8 (µM), S9 metabolic activation: without S9, exposure time: 24 hours	0.78	1.22	100
concentration: 33.6 (µM), S9 metabolic activation: with S9, exposure time: 3-4 hours	0.34	2.22	79.9
concentration: 33.6 (µM), S9 metabolic activation: without S9, exposure time: 24 hours	0.54	1.34	118
concentration: 41.9 (µM), S9 metabolic activation: with S9, exposure time: 3-4 hours	0.46	3	72.1
concentration: 41.9 (µM), S9 metabolic activation: without S9, exposure time: 24 hours	1	1.6	112
concentration: 52.4 (µM), S9 metabolic activation: with S9, exposure time: 3-4 hours	0.61	3.52	46.6
concentration: 52.4 (µM), S9 metabolic activation: without S9, exposure time: 24 hours	0.72	1.76	107
concentration: 65.5 (µM), S9 metabolic activation: with S9, exposure time: 3-4 hours	0.8	3.42	44.2
concentration: 65.5 (µM), S9 metabolic activation: without S9, exposure time: 24 hours	1.24	2.18	84.4
concentration: 81.9 (µM), S9 metabolic activation: with S9, exposure time: 3-4 hours	–	–	34.8
concentration: 81.9 (µM), S9 metabolic activation: without S9, exposure time: 24 hours	1.52	3.22	83.8
concentration: 102 (µM), S9 metabolic activation: with S9, exposure time: 3-4 hours	–	–	30.5
concentration: 102 (µM), S9 metabolic activation: without S9, exposure time: 24 hours	1.32	3.32	82.8
concentration: 128 (µM), S9 metabolic activation: with S9, exposure time: 3-4 hours	–	–	18.2
concentration: 128 (µM), S9 metabolic activation: without S9, exposure time: 24 hours	2.48	3.86	48
concentration: 160 (µM), S9 metabolic activation: with S9, exposure time: 3-4 hours	–	–	9.15
concentration: 160 (µM), S9 metabolic activation: without S9, exposure time: 24 hours	1.48	4.02	50.2
concentration: 200 (µM), S9 metabolic activation: with S9, exposure time: 3-4 hours	–	–	2.79
concentration: 200 (µM), S9 metabolic activation: without S9, exposure time: 24 hours	1.52	3.96	42.5

Nc1ccccc1N [1,2-Phenylenediamine]
Conditions	hypodiploid nuclei frequency, [2] [%]	micronucleus frequency, [1] [%]	relative survival, [3]
concentration: 4.53 (µM), S9 metabolic activation: with S9, exposure time: 3-4 hours	0.34	0.74	96
concentration: 4.53 (µM), S9 metabolic activation: without S9, exposure time: 24 hours	0.44	1.48	70
concentration: 5.66 (µM), S9 metabolic activation: with S9, exposure time: 3-4 hours	0.26	1.04	88.9
concentration: 5.66 (µM), S9 metabolic activation: without S9, exposure time: 24 hours	0.64	1.48	89.4
concentration: 7.07 (µM), S9 metabolic activation: with S9, exposure time: 3-4 hours	0.44	0.92	80.5
concentration: 7.07 (µM), S9 metabolic activation: without S9, exposure time: 24 hours	0.86	2.18	105
concentration: 8.84 (µM), S9 metabolic activation: with S9, exposure time: 3-4 hours	0.26	0.78	85.2
concentration: 8.84 (µM), S9 metabolic activation: without S9, exposure time: 24 hours	0.66	2.08	92.9
concentration: 11.1 (µM), S9 metabolic activation: with S9, exposure time: 3-4 hours	0.26	1.02	99.8
concentration: 11.1 (µM), S9 metabolic activation: without S9, exposure time: 24 hours	0.52	1.34	90.8
concentration: 13.8 (µM), S9 metabolic activation: with S9, exposure time: 3-4 hours	0.22	1	88.2
concentration: 13.8 (µM), S9 metabolic activation: without S9, exposure time: 24 hours	0.46	1.52	97.4
concentration: 17.3 (µM), S9 metabolic activation: with S9, exposure time: 3-4 hours	0.28	1.22	103
concentration: 17.3 (µM), S9 metabolic activation: without S9, exposure time: 24 hours	0.66	1.56	85.9
concentration: 21.6 (µM), S9 metabolic activation: with S9, exposure time: 3-4 hours	0.22	0.56	90
concentration: 21.6 (µM), S9 metabolic activation: without S9, exposure time: 24 hours	0.5	1.76	87.1
concentration: 27 (µM), S9 metabolic activation: with S9, exposure time: 3-4 hours	0.28	1.14	109
concentration: 27 (µM), S9 metabolic activation: without S9, exposure time: 24 hours	0.66	1.3	93.2
concentration: 33.7 (µM), S9 metabolic activation: with S9, exposure time: 3-4 hours	0.36	1.08	117
concentration: 33.7 (µM), S9 metabolic activation: without S9, exposure time: 24 hours	0.52	1.7	99.8
concentration: 42.2 (µM), S9 metabolic activation: with S9, exposure time: 3-4 hours	0.18	0.96	95.5
concentration: 42.2 (µM), S9 metabolic activation: without S9, exposure time: 24 hours	0.98	1.44	64.8
concentration: 52.7 (µM), S9 metabolic activation: with S9, exposure time: 3-4 hours	0.32	1.08	85.6
concentration: 52.7 (µM), S9 metabolic activation: without S9, exposure time: 24 hours	1.14	1.72	78.5
concentration: 65.9 (µM), S9 metabolic activation: with S9, exposure time: 3-4 hours	0.22	1.14	79.4
concentration: 65.9 (µM), S9 metabolic activation: without S9, exposure time: 24 hours	1.5	1.98	67.5
concentration: 82.3 (µM), S9 metabolic activation: with S9, exposure time: 3-4 hours	0.22	1.6	96.8
concentration: 82.3 (µM), S9 metabolic activation: without S9, exposure time: 24 hours	2.46	2.3	49
concentration: 103 (µM), S9 metabolic activation: with S9, exposure time: 3-4 hours	0.32	1.56	79.5
concentration: 103 (µM), S9 metabolic activation: without S9, exposure time: 24 hours	–	–	33.8
concentration: 129 (µM), S9 metabolic activation: with S9, exposure time: 3-4 hours	0.4	2.24	71.8
concentration: 129 (µM), S9 metabolic activation: without S9, exposure time: 24 hours	–	–	25.3
concentration: 161 (µM), S9 metabolic activation: with S9, exposure time: 3-4 hours	0.34	2.52	77.3
concentration: 161 (µM), S9 metabolic activation: without S9, exposure time: 24 hours	–	–	5.8
concentration: 201 (µM), S9 metabolic activation: with S9, exposure time: 3-4 hours	0.26	1.9	75.6
concentration: 201 (µM), S9 metabolic activation: without S9, exposure time: 24 hours	–	–	0.48
